# The campaign covered roughly 360,000 compounds. About 7,500 (2.1%) were called active. The inconclusive results got no clear call from the source; some entries with a clear call stand among them for comparison. The call rests on the fitted dose curve; in most records, active means well fitted cell-killing curve with a large enough effect; inconclusive means small, poorly fitted or top-dose-only effect, or effect the other way, or another doubt; inactive means no such curve, though single readings can be large or run the other way. Potencies of inconclusive entries are left out as doubtful fits.
# Assay: qHTS for induction of synthetic lethality in tumor cells producing 2HG: qHTS for the HT-1080-IDH1KD cell line;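 on activity, negative = toxicity: 0% = DMSO wells and -100% = cell-free medium wells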
# Settings: HT-1080 IDH1 knockdown viability, ATP luminescence, 48 h; activity, negative = toxicity: at 46.1 µM (top of the series) unless noted
# In short: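 After a 2 h attachment period, IDH1KD HT-1080 cells took pin-transferred compound for 48 h at 37 °C; ATP-based luminescence after 10 min room-temperature reagent incubation reported viability.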
# Potency means the concentration at half of the fitted maximal effect; tags describe the fitted curve by direction and shape.
Compound,Potency,"activity, negative = toxicity"
O=C(CC1SC(=Nc2ccccc2)N(CCCO)C1=O)Nc1ccc(Cl)cc1 (centres undefined),"inconclusive [cytotoxic, single point]",–
Cc1ccc(-n2nnnc2Sc2nc([N+](=O)[O-])nn2C)cc1,"inconclusive [cytotoxic, single point]",–
Cc1ccc2c(c1)N(C)/C(=C/c1cccc[n+]1CCO)S2,"inconclusive [cytotoxic, partial curve]",–
CC1(C(=O)NCCCN2CCCC2=O)CCN1CCc1ccccc1 (centres undefined),"inconclusive [rising, single point]",–
COc1cccc(NC2c3ccccc3C(=O)N2Cc2ccccc2Cl)c1 (centres undefined),"inconclusive [cytotoxic, partial curve, poor fit]",–
O=C(Cc1cc(=O)[nH][nH]1)N/N=C/c1c(Cl)cccc1Cl,inactive,–
OCC1(Cc2ccc(Cl)cc2)CCN(CCCc2ccccc2)CC1,"inconclusive [cytotoxic, single point]",–
COc1c(C)cccc1C(=O)Nc1ccc(N2CCOCC2)c(Cl)c1,inactive,–
CC1C(=O)C(C)C(c2cc(Cl)ccc2O)NC1c1cc(Cl)ccc1O (centres undefined),active: 23.1 µM,–
C[C@H]1CN=C(N(C)C)N1CCCC1CCCCC1,inactive,–
CN(Cc1ccc(OCC(O)CN(C)Cc2ccccc2)cc1)Cc1nccn1C (centres undefined),inactive,–
O=C(Nc1ccccc1-c1nc2ccccc2s1)C1=COCCO1,"inconclusive [cytotoxic, single point]",–
Cc1ccc(-n2[nH]c(C)c(C=Nc3ccc(S(=O)(=O)Nc4nccs4)cc3)c2=O)cc1C,"inconclusive [cytotoxic, partial curve]",–
COc1cccc(CNC(=O)C2CCCN(c3cnccn3)C2)c1 (centres undefined),inactive,–
CCOC(=O)c1c(NC(=O)CSc2n[nH]c(CNc3ccccc3)n2)sc(C)c1C,"inconclusive [cytotoxic, single point]",–
Cc1[nH]c2ccccc2c1/C=N/Nc1ccc([N+](=O)[O-])cc1,"inconclusive [cytotoxic, single point]",–
c1ccc(COc2ncnc3c2ncn3CCCNCC(c2ccccc2)c2ccccc2)cc1,"inconclusive [cytotoxic, single point]",–
O=C(NC1CCS(=O)(=O)C1)c1cccc(S(=O)(=O)N2CCOCC2)c1 (centres undefined),–,inconclusive: 33.9%
O=c1[nH]c(=S)[nH]c2c1C(c1ccc(Cl)c(Cl)c1)OC(CCc1ccccc1)C2 (centres undefined),"inconclusive [cytotoxic, single point]",–
Cc1cccc(NC(=O)COC(=O)c2ccc(S(=O)(=O)N3CCCC3)cc2)c1,inactive,–
OC(c1cccc(Cl)c1)c1nc(-c2cnc3ccccc3c2)cs1 (centres undefined),"inconclusive [cytotoxic, single point]",–
O=C(c1cccc(Cl)c1)N1CCN(c2ncnc3c2cnn3-c2ccccc2)CC1,inactive,–
COc1cccc(C(=O)Nc2ccc(S(=O)(=O)Nc3cc(C)nc(C)n3)cc2)c1,inactive,–
O=c1c[n+]([O-])c2ccccc2n1OCc1c(F)cccc1F,"inconclusive [cytotoxic, single point]",–
CC(C)(C)NC(=O)CN1CCN(C(=O)CCl)CC1,"inconclusive [cytotoxic, single point]",–

Compound,Potency,"activity, negative = toxicity"
CC(=O)Nc1ccc(-c2nnc(SCc3c(C)cc(C)cc3C)n2C)cc1,inactive,–
CC(=O)Nc1ccc(NC(=O)COC(=O)/C(=C/c2ccccc2)n2nnnc2C)cc1,"inconclusive [cytotoxic, single point]",–
COc1cccc(-c2nnc(Nc3nc4c(F)cccc4s3)o2)c1,active: 6.31 µM,–
CCOc1ccc(NS(=O)(=O)c2ccc(-c3cnc(C4CC4)o3)cc2)cc1,"inconclusive [cytotoxic, single point]",–
CC(=O)Oc1cc2c(cc1Cl)C1(CC(c3ccccc3Cl)O2)CC(C)(C)NC(=S)N1 (centres undefined),active: 23.1 µM,–
COc1cccc(-c2nnc(NC(=O)c3ccc(S(=O)(=O)N(CC(C)C)CC(C)C)cc3)o2)c1,active: 2.59 µM,–
c1ccc(CNc2ncnc3sccc23)cc1,"inconclusive [cytotoxic, single point]",–
O=C(N/N=C/c1cccc(OC(=O)c2cccc(Br)c2)c1)c1ccncc1,"inconclusive [cytotoxic, full curve]",–
O=c1[nH]c2ccccc2nc1-c1c[nH]c2ccccc12,inactive,–
CCCCCC1CCC(C(=O)NNC(=S)NCC)CC1 (centres undefined),active: 3.16 µM,–
CN(c1ccccc1)S(=O)(=O)c1ccc(C(=O)Nc2nnc(-c3ccc(F)cc3)o2)cc1,"inconclusive [cytotoxic, partial curve]",–
Nc1cc(S(=O)(=O)N2CCCCC2)ccc1Oc1ccc(Cl)cc1,"inconclusive [cytotoxic, single point]",–
OC(COC(c1ccc(Cl)cc1)c1ccc(Cl)cc1)CN1CCN(c2ccccn2)CC1 (centres undefined),"inconclusive [cytotoxic, single point]",–
O=C1CCN(Cc2ccccc2)S(=O)(=O)c2ccccc21,inactive,–
CCOC(=O)c1c(NC(=O)c2ccc(S(=O)(=O)N3CCOCC3)cc2)sc2c1CCN(C(C)C)C2,"inconclusive [cytotoxic, single point]",–
Cc1ccc(C(C)NC(=O)/C(C#N)=C\c2c(C)[nH]c3ccccc23)cc1 (centres undefined),"inconclusive [cytotoxic, single point]",–
O=C(N/N=C1/CC2CCC1C2)c1cc2ccccc2cc1O (centres undefined),"inconclusive [cytotoxic, partial curve]",–
COc1ccc2oc(C(=O)OCC(=O)Nc3ccc(C(=O)N(C)C)cc3)c(C)c2c1,inactive,–
Cc1cc(C)n2c(Nc3c(C)cccc3C)c(CC(C)C)nc2n1,"inconclusive [cytotoxic, single point]",–
CC(C)C[C@@H](CN1CCC[C@@H]1CN1C(=O)C(=O)NC[C@@H]1Cc1ccc(O)cc1)N1C[C@H](Cc2ccc(O)cc2)N(CC2CCCCCC2)C(=O)C1=O,inactive,–
Cc1ccc(S(=O)(=O)Oc2ccc(/C=N/NC(=O)c3cccnc3)cc2)cc1,"inconclusive [cytotoxic, partial curve]",–
Cn1ccc2c(-c3ccc(C(C)(C)C)cc3)cc3c(c21)C1CCC3O1 (centres undefined),"inconclusive [cytotoxic, single point]",–
O=C1CC(c2ccccc2F)c2cc3c(cc2N1)CCC3 (centres undefined),active: 0.891 µM,–
COc1ccc(NC(=O)c2cc(S(=O)(=O)NCC3COc4ccccc4O3)ccc2F)cc1 (centres undefined),inactive,–
N#CCCN(C(=O)CCl)c1cccc(Cl)c1,active: 23.1 µM,–

Compound,Potency,"activity, negative = toxicity"
CCO[C@@H]1OC(C(=O)Nc2ccccc2)=C[C@H](c2ccc(Br)cc2)[C@H]1CCCO,"inconclusive [cytotoxic, single point]",–
COc1ccc(NC(=O)C2CCCN2S(=O)(=O)c2ccc3c(c2)CCC(=O)N3)cc1Cl (centres undefined),inactive,–
COc1ccc(Cl)cc1S(=O)(=O)N1CCN(C(=O)c2n[nH]c(=O)c3ccccc23)CC1,"inconclusive [cytotoxic, single point]",–
COC(=O)[C@@]1(C)[C@H]2C(=O)N(Cc3ccccc3)C(=O)[C@H]2[C@H]2CN=C(SCC(=O)c3ccccc3)N21,inactive,–
CCN(CC(=O)NCc1ccc(F)cc1)C(=O)/C=C/c1ccc(S(=O)(=O)N(CC)CC)cc1,active: 4.61 µM,–
O=C(CSCc1ccccc1)Nc1ccccc1,"inconclusive [rising, partial curve, poor fit]",–
COc1cc(CNCCSc2nnnn2C)cc(Br)c1OCc1ccc(F)cc1,"inconclusive [cytotoxic, single point]",–
COc1cc(OC)c(NC(=O)C2CC(=O)N(c3ccc4c(c3)OCCO4)C2)cc1Cl (centres undefined),inactive,–
CCNC(=O)C1CCCN(C(=O)c2ccc3ccccc3c2)CC1 (centres undefined),"inconclusive [cytotoxic, single point]",–
Cc1ccccc1C(=O)NNC(=S)NC(=O)c1cccs1,"inconclusive [cytotoxic, single point]",–
O=C(Nc1ccc(Cl)cc1)N1CCSC1=NCc1ccccc1,inactive,–
NC(=O)CSc1nnc(-c2cccs2)n1-c1ccccc1,inactive,–
COCC(=O)Nc1nc(-c2ccc(-c3ccccc3)cc2)cs1,inactive,–
CCCC(=O)Nc1ccc(S(=O)(=O)N2CCc3ccccc32)cc1,inactive,–
Cc1ccccc1NC(=O)Nc1nc(C(N)Cc2ccccc2)cs1 (centres undefined),"inconclusive [cytotoxic, partial curve]",–
O=C(N/N=C/C(Cl)=C/c1ccccc1)c1ccccn1,inactive,–
O=C1NC(=O)C2(Br)Nc3ccc(Br)cc3C(=O)C2N1 (centres undefined),inactive,–
CC1(C)C2CCC(CN=C(N)CSS(=O)(=O)O)C1C2 (centres undefined),inactive,–
CC(C)(C)[C@@H]1C=C(C(=O)O)[C@H](c2ccc(Cl)cc2)N1S(=O)(=O)c1ccccc1,inactive,–
Cc1ccc(OCC(=O)N2CCc3ccccc3C2)c([N+](=O)[O-])n1,inactive,–
CCOc1ccc(C(C)=O)cc1COc1cccnc1[N+](=O)[O-],"inconclusive [cytotoxic, partial curve]",–
CCN(CC)C(=O)C1CCN(Cc2ccc(Br)cc2)CC1,inactive,–
O=[N+]([O-])c1cccc(N(CC2CO2)S(=O)(=O)c2ccccc2)c1 (centres undefined),"inconclusive [cytotoxic, single point]",–
Cc1cc(C)n(C(=O)/C(C#N)=N\Nc2ccccc2[N+](=O)[O-])n1,inactive,–
